# Results reported in paper PMC12670160, “A drug-repurposing screen of FDA- and EMA-approved drugs identifies two NF-κB inhibitors active against eumycetoma” (Journal of Antimicrobial Chemotherapy, 2025).
# Counter-ions that a name gives are not always drawn. The strong results were mostly taken out for another list; the other results follow.
# Tested on: M. mycetomatis strain mm55
# Conditions: primary screen, metabolic activity vs growth control; 96 h, 2 µM; inhibitor
row,Compound,% viability [%]
1,"CCCn1c(=O)c(C)cn2nc(N)nc12 [ONC0000868, ici63197]",60.66
2,"Cc1cc(/C=C/c2ccc3cc(N(C)C)ccc3[n+]2C)c(C)n1-c1ccccc1.Cc1cc(/C=C/c2ccc3cc(N(C)C)ccc3[n+]2C)c(C)n1-c1ccccc1 [ONC0003722, pyrvinium]",106.5
3,"O=C(c1ccc(F)cc1)N1CCC[C@H](c2nc(-c3ccc(F)cc3)no2)C1 [ONC0005279, adx47273]",129
4,"CCC(C)(CN(C)C)OC(=O)c1ccccc1 (centres unmarked) [ONC0002307, amyleine]",77.71
5,"NCCCC(N)C(=O)O (centres unmarked) [ONC0004288, ornithine hydrochloride]",70.55
6,"Nc1nc(N)c2nc(-c3cccc(O)c3)cnc2n1 [ONC0005260, tg 100713]",138.1
7,"Cc1cc(C)n(-c2cccc([C@H](CC(=O)O)CN3CC[C@@H](CCc4ccc5c(n4)NCCC5)C3)c2)n1 [ONC0001238, gsk 3008348 hydrochloride]",66.6
8,"COc1cc2c(cc1OC)C(=O)C(CC1CCN(Cc3ccccc3)CC1)C2 (centres unmarked) [ONC0004266, donepezil hydrochloride]",67.34
9,"C[C@@H]1C(SC2CN(C3=NCCS3)C2)=C(C(=O)OCOC(=O)C(C)(C)C)N2C(=O)[C@H]([C@@H](C)O)[C@H]12 [ONC0004883, tebipenem pivoxil l084]",96.39
10,"N=C(N)NCCN1CCCCCCC1 [ONC0000440, guanethidine monosulfate]",94
11,"Nc1ccc(C(=O)Nc2cccc(-c3nc(N4CCOCC4)c4oc5ncccc5c4n3)c2)cn1 [ONC0004526, ym201636]",65.68
12,"C[C@@H]1CN(Cc2ccc(F)cc2)CCN1C(=O)COc1ccc(Cl)cc1NC(N)=O [ONC0000713, bx471]",73.97
13,"COC(=O)C1=C(C)NC(C)=C(C(=O)OC)C1c1ccccc1[N+](=O)[O-] [ONC0000507, nifedipine]",62.38
14,"CCn1cc(C(=O)O)c(=O)c2cc(F)c(N3CCN(C)CC3)cc21 [ONC0004198, pefloxacin mesylate]",80.86
15,"C[C@@H]1C[C@H]2[C@@H]3C[C@H](F)C4=CC(=O)C=C[C@]4(C)[C@@]3(F)[C@@H](O)C[C@]2(C)[C@@]1(O)C(=O)CO [ONC0004574, flumethasone]",73.58
16,"O=C1OCCN1/N=C/c1ccc([N+](=O)[O-])o1 [ONC0000487, furazolidone]",68.53
17,"Cc1ccc(CCCO)c(NCc2ccc3nc(NCCCN4CCOCC4)n(Cc4nc(C)ccc4O)c3c2)c1 [ONC0002062, tmc353121]",76.36
18,"Cc1c(NC(=O)N2CCOCC2)ccc2c1c1ccccc1n2C(C)C [ONC0004300, npy5ra972]",97.63
19,"CCNC(=O)C[C@@H]1N=C(c2ccc(Cl)cc2)c2cc(OC)ccc2-n2c(C)nnc21 [ONC0005049, ibet762]",80.17
20,"Cc1ccc(-c2ccc(F)cc2COc2ccc(CCC(=O)O)cc2)cc1 [ONC0000358, tug891]",99.08
21,"N#Cc1ccc(-c2ccc(S(=O)(=O)Nc3cccc(N)n3)cc2)cc1 [ONC0001785, pf915275]",124
22,"Nc1nc2ccc(OC(F)(F)F)cc2s1 [ONC0003910, riluzole]",84.65
23,"CCC[C@@H]1C[C@@H](C(=O)N[C@@H]([C@H]2O[C@H](SC)[C@H](O)[C@@H](O)[C@H]2O)[C@H](C)Cl)N(C)C1 [ONC0000785, clindamycin hydrochloride]",76.03
